# This is one part of the list.
# Columns and labels:
# [1] = test system: HSkMC (human skeletal muscle cells); experiment: cytotoxicity call (relative viability < 0.9); conditions: 10 µM
# [2] = test system: HepG2; experiment: cytotoxicity call (relative viability < 0.9); conditions: 10 µM
# [3] = test system: S. aureus RN4220; experiment: growth inhibition call (relative growth <= 0.2); conditions: 50 µM
SMILES,cytotoxicity call [1],cytotoxicity call [2],growth inhibition call [3]
C[C@@H]1CN([C@@H](C)CO)C(=O)c2cc(NS(=O)(=O)c3cn(C)cn3)ccc2O[C@H]1CN(C)S(=O)(=O)c1cn(C)cn1,inactive,inactive,inactive
Cc1noc(C)c1S(=O)(=O)N(C)C[C@@H]1OCCCC[C@@H](C)Oc2ccc(NC(=O)Nc3ccccc3)cc2C(=O)N([C@@H](C)CO)C[C@@H]1C,inactive,inactive,inactive
C[C@@H]1CN([C@H](C)CO)C(=O)Cc2cc(NC(=O)CCN3CCOCC3)ccc2O[C@H]1CN(C)C(=O)Nc1ccc2c(c1)OCO2,inactive,inactive,inactive
O=C(Nc1nccs1)[C@@H]1[C@@H](CO)[C@@H]2Cn3c(cccc3=O)[C@H]1N2C(=O)C1CC1,inactive,inactive,inactive
CC(C)NC(=O)Nc1ccc2c(c1)C(=O)N([C@H](C)CO)C[C@@H](C)[C@H](CN(C)Cc1ccc(Cl)c(Cl)c1)OCCCC[C@H](C)O2,inactive,inactive,inactive
C[C@@H]1CN([C@@H](C)CO)C(=O)c2cccc(NS(=O)(=O)c3ccc(Cl)cc3)c2O[C@@H]1CN(C)Cc1ccc(Oc2ccccc2)cc1,inactive,inactive,inactive
Cc1noc(C)c1NC(=O)N(C)C[C@@H]1Oc2c(NC(=O)C3CCOCC3)cccc2C(=O)N([C@H](C)CO)C[C@H]1C,inactive,inactive,inactive
C[C@@H]1CN([C@H](C)CO)S(=O)(=O)c2ccc(C#CC3(O)CCCC3)cc2O[C@H]1CN(C)C(=O)c1cccnc1,inactive,inactive,inactive
CO[C@@H]1CN(C)C(=O)c2ccc(NS(=O)(=O)c3cn(C)cn3)cc2OC[C@H](C)N(Cc2cccc(F)c2)C[C@H]1C,inactive,inactive,inactive
COc1ccc(S(=O)(=O)N(C)C[C@@H]2OCCCC[C@H](C)Oc3ccc(NC(=O)Nc4c(C)noc4C)cc3C(=O)N([C@H](C)CO)C[C@@H]2C)cc1,inactive,inactive,inactive
Cc1noc(C)c1S(=O)(=O)Nc1ccc2c(c1)C(=O)N([C@@H](C)CO)C[C@H](C)[C@H](CN(C)S(=O)(=O)c1cccs1)O2,inactive,inactive,inactive
COc1ccc(NC(=O)Nc2ccc3c(c2)C(=O)N([C@H](C)CO)C[C@H](C)[C@@H](CN(C)Cc2ccncc2)OCCCC[C@@H](C)O3)cc1,inactive,inactive,inactive
O=C(CCC1CCCCC1)NCCC12CC3CC(CC(C3)C1)C2,inactive,inactive,inactive
CCC(=O)N1C[C@]2(C1)CN([C@@H](CO)c1[nH]c3cc(ccc3c12)OC)C(=O)CN1CCOCC1,inactive,inactive,inactive
CN1CCN(C(=O)C[C@H]2CC[C@@H]3[C@H](COC[C@H](O)CN3C(=O)Nc3cc(Cl)cc(Cl)c3)O2)CC1,inactive,inactive,inactive
COCC#Cc1cnc2c(c1)C(=O)N([C@H](C)CO)C[C@@H](C)[C@H](CN(C)S(=O)(=O)c1ccccc1)O2,inactive,inactive,inactive
CO[C@@H]1CN(C)C(=O)c2cc(NS(=O)(=O)CC(F)(F)F)ccc2OC[C@H](C)N(Cc2nccs2)C[C@@H]1C,inactive,inactive,inactive
O=c1c2ccccc2oc2ccccc12,inactive,inactive,inactive
O=C(Nc1nccs1)[C@H]1[C@H](CO)[C@H]2Cn3c(cccc3=O)[C@H]2N1C(=O)C1CC1,inactive,inactive,inactive
C[C@@H]1CN([C@H](C)CO)C(=O)c2cc(NS(=O)(=O)c3ccc(Cl)cc3)ccc2O[C@@H](C)CCCCO[C@@H]1CN(C)Cc1ccc(C(=O)O)cc1,inactive,inactive,inactive
C[C@@H]1CCCCO[C@H](CN(C)C(=O)Nc2cccc3ccccc23)[C@@H](C)CN([C@H](C)CO)C(=O)c2cc(N(C)C)ccc2O1,inactive,inactive,inactive
O=S(=O)(c1cccc(OC(F)F)c1)N1[C@@H]2CC[C@@H](C2)[C@H]1c1nc2cccc(OCc3ccccc3)c2[nH]1,inactive,inactive,inactive
C[C@@H]1CCCCO[C@@H](CN(C)Cc2ccc(C(=O)O)cc2)[C@@H](C)CN([C@@H](C)CO)C(=O)c2cc(NC(=O)c3ccccc3)ccc2O1,inactive,inactive,inactive
Cc1cc(NS(=O)(=O)c2ccc(N)cc2)nc(C)n1,inactive,inactive,inactive
CCCN(C)C[C@H]1Oc2cc(C#Cc3ccccc3OC)ccc2S(=O)(=O)N([C@H](C)CO)C[C@H]1C,inactive,inactive,inactive
COc1ccc(S(=O)(=O)Nc2ccc3c(c2)C(=O)N([C@H](C)CO)C[C@@H](C)[C@H](CN(C)C(=O)C2CCCCC2)OCCCC[C@@H](C)O3)cc1,inactive,inactive,inactive
C[C@H]1CN([C@@H](C)CO)C(=O)Cc2cc(NS(=O)(=O)c3ccc(Cl)cc3)ccc2O[C@H]1CN(C)C(=O)Nc1ccc(C(F)(F)F)cc1,inactive,inactive,inactive

SMILES,cytotoxicity call [1],cytotoxicity call [2],growth inhibition call [3]
C[C@@H]1CN([C@@H](C)CO)C(=O)c2cccc(NC(=O)C3CC3)c2O[C@H]1CN(C)C(=O)NC1CCCCC1,inactive,inactive,inactive
C[C@H]1CCCCO[C@@H](CN(C)Cc2ccc(C(=O)O)cc2)[C@@H](C)CN([C@@H](C)CO)C(=O)c2cc(NC(=O)Nc3ccc4c(c3)OCO4)ccc2O1,inactive,inactive,inactive
C[C@@H]1CCCCO[C@H](CN(C)Cc2ccc3c(c2)OCO3)[C@H](C)CN([C@@H](C)CO)C(=O)c2cc(NC(=O)NC3CCCCC3)ccc2O1,inactive,active,inactive
COc1ccc(NC(=O)Nc2ccc3c(c2)C(=O)N([C@H](C)CO)C[C@H](C)[C@@H](CN(C)S(=O)(=O)c2c(C)noc2C)O3)cc1,inactive,inactive,inactive
C[C@@H]1CN([C@@H](C)CO)C(=O)c2cccc(NC(=O)C3CC3)c2O[C@@H]1CN(C)Cc1ccc(C(=O)O)cc1,inactive,inactive,inactive
CC(C)NC(=O)N(C)C[C@H]1Oc2cc(-c3ccccc3F)ccc2S(=O)(=O)N([C@@H](C)CO)C[C@H]1C,inactive,inactive,inactive
COc1cc2c(c3ccccc13)OC(C)(C)C=C2,inactive,inactive,inactive
C[C@@H]1CN([C@H](C)CO)S(=O)(=O)c2ccc(-c3cncnc3)cc2O[C@H]1CN(C)C(=O)NC1CCCC1,inactive,inactive,inactive
Cc1ccc(S(=O)(=O)Nc2ccc3c(c2)C(=O)N([C@@H](C)CO)C[C@@H](C)[C@H](CN(C)S(=O)(=O)c2ccc(F)cc2)OCCCC[C@@H](C)O3)cc1,inactive,inactive,inactive
C[C@H](CO)N1C[C@H](C)[C@H](CN(C)C(=O)C2CCCCC2)Oc2cc(C#CCN(C)C)ccc2S1(=O)=O,inactive,inactive,inactive
C[C@H]1CCCCO[C@H](CN(C)C(=O)Nc2ccc(F)cc2)[C@@H](C)CN([C@@H](C)CO)C(=O)c2cc(NC(=O)Nc3ccc(F)cc3)ccc2O1,inactive,inactive,inactive
Oc1cc(O)c2c(c1)OC(c1cc(O)c(O)c(O)c1)C(O)C2 (centres undefined),inactive,inactive,inactive
C[C@H](CO)N1C[C@H](C)[C@@H](CN(C)C(=O)Nc2cccc(F)c2)OCc2ccccc2-c2c(n(C)c3ccccc23)C1=O,inactive,inactive,inactive
O=C(C[C@H]1CC[C@H]2[C@@H](COC[C@H](O)CN2C(=O)Nc2cccc(Cl)c2)O1)NCc1ccccc1F,inactive,inactive,inactive
C[C@@H]1CN([C@H](C)CO)C(=O)c2cc(NC(=O)Cn3cnnn3)ccc2O[C@H]1CN(C)C(=O)Nc1ccccc1,inactive,inactive,inactive
COc1ccc(NC(=O)Nc2ccc3c(c2)[C@@H]2C[C@@H](CC(=O)NCc4ccncc4)O[C@H](CO)[C@@H]2O3)cc1,inactive,inactive,inactive
Cc1ccc(S[C@]2(C(=O)NCC(F)(F)F)CC(=O)N(C3Cc4ccccc4C3)[C@@H]2c2ccc(CO)cc2I)cc1,inactive,inactive,inactive
C[C@@H]1CN([C@@H](C)CO)C(=O)c2cc(NS(=O)(=O)c3cccs3)ccc2O[C@H]1CN(C)Cc1ccc(Cl)c(Cl)c1,inactive,inactive,inactive
C[C@H](CO)N1C[C@H](C)[C@H](CN(C)C(=O)c2ccccc2)OCCCC[C@H](C)Oc2ccc(NS(=O)(=O)c3ccc(F)cc3)cc2C1=O,inactive,inactive,inactive
C[C@@H]1CN([C@H](C)CO)C(=O)Cc2cc(NC(=O)C3CCCCC3)ccc2O[C@H]1CN(C)S(C)(=O)=O,inactive,inactive,inactive
CCCCc1cn(C[C@H](Cc2ccccc2)NC(=O)N[C@H](CO)CCc2oc(C(C)=O)c(C(=O)OC)c2C(=O)OC)nn1,inactive,inactive,inactive
COc1ccc(NC(=O)N(C)C[C@@H]2Oc3ccc(NC(=O)Nc4cccc5ccccc45)cc3CC(=O)N([C@@H](C)CO)C[C@H]2C)cc1,inactive,inactive,inactive
C[C@@H]1CN([C@@H](C)CO)C(=O)c2cccc(NC(=O)Nc3ccc4c(c3)OCO4)c2O[C@H]1CN(C)C(=O)Nc1cccc2ccccc12,inactive,inactive,inactive
CO[C@@H]1CN(C)C(=O)c2cc(NS(=O)(=O)c3ccccc3)ccc2OC[C@@H](C)N(C(=O)NC(C)C)C[C@H]1C,inactive,inactive,inactive
Cc1ccc(S(=O)(=O)N(C)C[C@@H]2OCCCC[C@@H](C)Oc3ccc(NC(=O)Nc4c(C)noc4C)cc3C(=O)N([C@@H](C)CO)C[C@@H]2C)cc1,inactive,inactive,inactive
C[C@@H]1CN([C@@H](C)CO)C(=O)Cc2cc(NC(=O)Cn3cnnn3)ccc2O[C@@H]1CN(C)Cc1ccc2c(c1)OCO2,inactive,inactive,inactive

# Source: the antibiotic and cytotoxicity screens of Wong et al. (2023)
